Results published in PubChem BioAssay AID1477 (National Center for Advancing Translational Sciences (NCATS), 2009).
Hit rate of the full screen: of about 230,000 compounds, fewer than 10 were called active. This list was built around the results that the source calls inconclusive (neither active nor inactive); the mix of calls is not that of the screen. Calls follow the shape of the dose curve; as a rule, active = well fitted curve in the direction sought with a large enough effect; inconclusive = small, poorly fitted or top-dose-only effect, or effect the other way, or another doubt; inactive = no such curve, though single readings can be large or run the other way. Potencies of inconclusive entries are left out as doubtful fits.

Each compound was assayed against Runt-related transcription factor 1 (Homo sapiens) + Core-binding factor subunit beta (Homo sapiens) (UniProt Q01196+Q13951) (assay: qHTS Assay for Compounds Blocking the Interaction Between CBF-beta and RUNX1 for the Treatment of Acute Myeloid Leukemia). Details: AlphaScreen CBFb-His/RUNX1-biotin binding, biochemical; series mostly up to 59.8 µM.
How it was run: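 Compounds were screened at multiple concentrations against a preformed CBF-beta(His)/RUNX1(biotin) complex (30 nM of each) for 15 min at room temperature, followed by 90 min with nickel and streptavidin beads and AlphaScreen reading.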

Chain of UniProt Q01196 (Q01196 whole entry, looked up): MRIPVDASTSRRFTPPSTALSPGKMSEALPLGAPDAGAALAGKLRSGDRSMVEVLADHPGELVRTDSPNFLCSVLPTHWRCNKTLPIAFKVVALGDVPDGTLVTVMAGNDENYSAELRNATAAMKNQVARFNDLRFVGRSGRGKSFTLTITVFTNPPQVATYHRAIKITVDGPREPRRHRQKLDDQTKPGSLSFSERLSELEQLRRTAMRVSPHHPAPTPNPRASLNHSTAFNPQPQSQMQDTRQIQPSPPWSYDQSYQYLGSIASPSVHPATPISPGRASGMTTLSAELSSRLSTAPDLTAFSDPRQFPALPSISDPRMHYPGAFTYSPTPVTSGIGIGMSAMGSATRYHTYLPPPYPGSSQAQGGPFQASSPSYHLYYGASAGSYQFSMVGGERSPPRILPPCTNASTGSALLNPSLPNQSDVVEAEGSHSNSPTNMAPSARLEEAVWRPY
Chain of UniProt Q01196 (Q13951 whole entry, looked up): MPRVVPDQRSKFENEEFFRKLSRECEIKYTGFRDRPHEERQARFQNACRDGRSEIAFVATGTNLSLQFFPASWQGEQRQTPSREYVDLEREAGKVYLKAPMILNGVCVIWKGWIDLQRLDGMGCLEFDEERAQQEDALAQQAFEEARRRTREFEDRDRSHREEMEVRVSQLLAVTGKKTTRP

Row | SMILES | Potency
1 | Cc1cccc(NC(=O)C2(c3cccs3)CCOCC2)c1 | inconclusive [activator, single point]
2 | CC1=C(C(=O)OCc2ccc3c(c2)OCO3)C(c2ccc(F)cc2)NC(=O)N1 (stereo not given) | inactive
3 | C=C(C)C(=O)Nc1cccc(C2=NOC3(C2)C[C@@H](C(N)=O)N(C(=O)c2ccc(Cl)cc2)C3)c1 (stereo not given in full) | inconclusive [inhibitor, full curve]
4 | C=CCN(CC=C)c1ccc(N2C(=O)C3CCCCC3C2=O)cc1[N+](=O)[O-] (stereo not given) | inconclusive [inhibitor, single point]
5 | COc1ccc2c(-c3ccccc3)cc(N3CCOCC3)nc2c1 | inconclusive [activator, single point]
6 | CCn1c(C)nc2cc(C(=O)N/N=C/c3ccc(O)c(O)c3O)ccc21 | inactive
7 | CCOc1ccc(C(C)C)cc1S(=O)(=O)n1nc(C)cc1C | inconclusive [inhibitor, single point]
8 | CC1CC(=O)N(c2ccc(NCCc3ccccc3)c([N+](=O)[O-])c2)C1=O (stereo not given) | inconclusive [inhibitor, partial curve, poor fit]
9 | Cc1c(C(=O)Nc2ccc(Oc3ccccc3)cc2)sc2nc3n(c(=O)c12)CCC3 | inactive
10 | CCOc1ccc(NC(=O)c2cc3c(=O)n(C)c4ccccc4c3n2C)cc1 | inactive
11 | C/C(=N\Nc1ncc(Cl)cc1Cl)c1ccc(N2CCOCC2)cc1 | inconclusive [inhibitor, single point]
12 | CC(CO)NC(=O)C1C=C2c3cccc4[nH]cc(c34)CC2N(C)C1 (stereo not given) | inconclusive [inhibitor, full curve]
13 | O=C(O/N=C\c1ccc(N2CCOCC2)c([N+](=O)[O-])c1)c1ccccc1Cl | inconclusive [inhibitor, single point]
14 | CCOC(=O)c1c(C)[nH]c(C(=O)Cn2c(=O)c3c(ncn3CC)n(Cc3ccccc3)c2=O)c1C | inactive
15 | N#CC1=C(N)SC(N)=C(C#N)C1c1ccc(C(F)(F)F)cc1 | inactive
16 | CCOC(=O)C(=Cc1ccccc1OC)C(=O)OCC | inconclusive [activator, single point]
17 | Nc1cc(N)cc(-c2nc3ccccc3[nH]2)c1 | inconclusive [inhibitor, partial curve]
18 | Oc1ccc(/C=N/N(Cc2ccccc2)c2ccccc2)cc1 | inconclusive [inhibitor, single point]
19 | CC(C)NC(=S)N(C)C1(c2ccccc2Cl)CCCCC1=O (stereo not given) | inactive
20 | COc1ccc(/C(C)=N/Nc2nc3ccccc3nc2C)cc1OC | inactive
